Structures are written as SMILES. Several values for one entry are separate records, joined by “and”; a condition that tells them apart may be missing. Equal entries are not always repeated. Structures can show the parent of a compound that is named as a salt. Some of the results follow. No stated cut-off is given here; in the data, active = 0.5 or less and inactive = the rest. Most values come without repeats; read them as rough.
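Further: HA-SDC1 level read out by In-Cell Western staining with an anti-HA antibody against the N-terminal tag, screening FDA-approved library drugs.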

The subject of this assay is HeLa VPS33A R498W KI + HA-SDC1-FLAG. In words: relative GAG core protein HA-SDC1 amount per cell number vs DMSO (fraction of DMSO); HeLa model of a glycosaminoglycan (GAG) storage disease; KI is knock-in and KO knock-out; SDC1 is syndecan 1; higher = more SDC1 (GAG core protein). The following applies: 50 µM; 24 h.
For `Nc1ccc(C(=O)O)c(O)c1` [4-Aminosalicylic acid], the “relative GAG core protein HA-SDC1 amount per cell number” value is inactive: 0.864.

Take `N=C(N)N/N=C/c1c(Cl)cccc1Cl` [Guanabenz Acetate]: the “relative GAG core protein HA-SDC1 amount per cell number” value was inactive: 0.592.

For the compound `O=C(O)c1ccccc1O` [Salicylic acid], the “relative GAG core protein HA-SDC1 amount per cell number” value is inactive: 1.04.

For the compound `CCCC(CCC)C(=O)O` [Valproic acid], the “relative GAG core protein HA-SDC1 amount per cell number” value is inactive: 1.06.

As to `CCn1cc(C(=O)O)c(=O)c2ccc(C)nc21` [Nalidixic acid], the “relative GAG core protein HA-SDC1 amount per cell number” value is inactive: 0.874.

As for `Oc1ccc(OC2CCCCO2)cc1` (centres undefined) [Deoxyarbutin], the “relative GAG core protein HA-SDC1 amount per cell number” value is inactive: 0.761.

For `O=C([O-])c1ccccc1O.[Na+]` [Sodium salicylate], the “relative GAG core protein HA-SDC1 amount per cell number” value is inactive: 0.913.

For `CC(C)(C)c1nc(-c2cccc(NS(=O)(=O)c3c(F)cccc3F)c2F)c(-c2ccnc(N)n2)s1`, the “relative GAG core protein HA-SDC1 amount per cell number” value was inactive: 1.22 and inactive: 0.924.

Regarding `O=Cc1ccc(OC2OC(CO)C(O)C(O)C2O)cc1` (centres undefined) [Helicid], the “relative GAG core protein HA-SDC1 amount per cell number” value is inactive: 0.67.

As to `NNC(=O)c1ccncc1.Nc1ccc(C(=O)O)c(O)c1` [Pasiniazid], the “relative GAG core protein HA-SDC1 amount per cell number” value was inactive: 1.07.

Consider `Cc1nccn1CC1CCc2c(c3ccccc3n2C)C1=O` (centres undefined) [Ondansetron hydrochloride dihydrate], for which the “relative GAG core protein HA-SDC1 amount per cell number” value is inactive: 1.07.

For `CN(C)C(=O)c1cc2cnc(Nc3ccc(N4CCNCC4)cn3)nc2n1C1CCCC1`, the “relative GAG core protein HA-SDC1 amount per cell number” value was active: 0.454.

Consider `Nc1nc(=O)c2nc(CNc3ccc(C(=O)N[C@@H](CCC(=O)O)C(=O)O)cc3)cnc2[nH]1` [Folic acid], for which the “relative GAG core protein HA-SDC1 amount per cell number” value is inactive: 0.548.

With `O=c1oc2cc(O)ccc2s1` [Tioxolone], the “relative GAG core protein HA-SDC1 amount per cell number” value was active: 0.492.

In the case of `O=C(O)Cc1cc(I)c(Oc2ccc(O)c(I)c2)c(I)c1` [Tiratricol], the “relative GAG core protein HA-SDC1 amount per cell number” value was active: 0.427.

On to `COc1nc2ccc(Br)cc2cc1[C@@H](c1ccccc1)[C@@](O)(CCN(C)C)c1cccc2ccccc12` [Bedaquiline], for which the “relative GAG core protein HA-SDC1 amount per cell number” value is active: 0.299.

Consider `Nc1c2c(nc3ccccc13)CCCC2` [Tacrine hydrochloride], for which the “relative GAG core protein HA-SDC1 amount per cell number” value is active: 0.48.

On to `C=CCc1cc(OC)c(O)c(C(=O)NCCO)c1` [Alibendol], for which the “relative GAG core protein HA-SDC1 amount per cell number” value is inactive: 0.849.

Take `CCOc1cc([C@@H](CS(C)(=O)=O)N2C(=O)c3cccc(NC(C)=O)c3C2=O)ccc1OC`: the “relative GAG core protein HA-SDC1 amount per cell number” value was inactive: 1.06.

With `CCC(C)n1ncn(-c2ccc(N3CCN(c4ccc(OCC5COC(Cn6cncn6)(c6ccc(Cl)cc6Cl)O5)cc4)CC3)cc2)c1=O` (centres undefined) [Itraconazole], the “relative GAG core protein HA-SDC1 amount per cell number” value is inactive: 1.09.

For the compound `NC(=O)c1ncn([C@@H]2O[C@H](CO)[C@@H](O)[C@H]2O)c1O` [Mizoribine], the “relative GAG core protein HA-SDC1 amount per cell number” value was inactive: 1.59.

`Cc1cc(O)c2c(c1)C(=O)c1cc(O)cc(O)c1C2=O` [Emodin]: the “relative GAG core protein HA-SDC1 amount per cell number” value was inactive: 0.91.

On to `COc1c2occc2cc2ccc(=O)oc12` [8-Methoxypsoralen], for which the “relative GAG core protein HA-SDC1 amount per cell number” value is inactive: 0.825.

Regarding `CCCC(=O)Nc1ncnc2c1ncn2[C@@H]1O[C@@H]2COP(=O)(O)O[C@H]2[C@H]1OC(=O)CCC` [Dibutyryl-cAMP, sodium salt], the “relative GAG core protein HA-SDC1 amount per cell number” value is inactive: 0.792.

Take `CCOC(=O)c1ccc(N)cc1` [Benzocaine]: the “relative GAG core protein HA-SDC1 amount per cell number” value was inactive: 1.16.

In the case of `O=S(=O)(O)CCS` [Mesna], the “relative GAG core protein HA-SDC1 amount per cell number” value is inactive: 1.23.

As for `COc1cc2nc(N3CCN(C(=O)C4CCCO4)CC3)nc(N)c2cc1OC` (centres undefined) [Terazosin HCl], the “relative GAG core protein HA-SDC1 amount per cell number” value was inactive: 0.953.

Consider `OC1OC[C@H](O)[C@H](O)[C@H]1O` (mixture of isomers) [L-Arabinose], for which the “relative GAG core protein HA-SDC1 amount per cell number” value is inactive: 0.84.

For `Nc1nc2n[nH]nc2c(=O)[nH]1` [Azaguanine-8], the “relative GAG core protein HA-SDC1 amount per cell number” value is active: 0.341.

As to `C[C@]12CCC(=O)C=C1C=C[C@@H]1[C@@H]2CC[C@@]2(C)[C@H]1CC[C@@]21CCC(=O)O1` [Canrenone], the “relative GAG core protein HA-SDC1 amount per cell number” value was inactive: 0.572.

With `C#C[C@]1(O)CC[C@H]2[C@@H]3CCC4=CC(=O)CC[C@@H]4[C@H]3C(=C)C[C@@]21CC` [Etonogestrel], the “relative GAG core protein HA-SDC1 amount per cell number” value is inactive: 0.751.

As to `COc1ccc(CN(CCN(C)C)c2ccccn2)cc1` [Mepyramine maleate], the “relative GAG core protein HA-SDC1 amount per cell number” value was inactive: 0.78.

For the compound `NC(N)=Nc1nc(CSCC/C(N)=N/S(N)(=O)=O)cs1` [Famotidine], the “relative GAG core protein HA-SDC1 amount per cell number” value was inactive: 1.28.

Take `COc1ccc2cc(CCC(C)=O)ccc2c1` [Nabumetone]: the “relative GAG core protein HA-SDC1 amount per cell number” value was inactive: 0.818.

For the compound `NS(=O)(=O)c1cc2c(cc1Cl)NCNS2(=O)=O` [Hydrochlorothiazide], the “relative GAG core protein HA-SDC1 amount per cell number” value is inactive: 0.863.

`Nc1ccc(C(=O)O)c(O)c1` [Sodium 4-Aminosalicylate]: the “relative GAG core protein HA-SDC1 amount per cell number” value is inactive: 1.09.

As for `Nc1ccc(O)c(C(=O)O)c1` [Mesalamine], the “relative GAG core protein HA-SDC1 amount per cell number” value is inactive: 0.924.

Take `Nc1ccn([C@@H]2O[C@H](CO)[C@@H](O)[C@@H]2O)c(=O)n1` [Cytarabine]: the “relative GAG core protein HA-SDC1 amount per cell number” value is inactive: 1.19.

For the compound `Cc1cc(C2CCCCC2)n(O)c(=O)c1` [Ciclopirox], the “relative GAG core protein HA-SDC1 amount per cell number” value is active: 0.45.

These data come from the supplement of paper PMC12355420.
